Test results from patent US7763623B2, “Heterocycles as nicotinic acid receptor agonists for the treatment of dyslipidemia” (Schering Corporation, priority 2006, dated 2010).

Target: recombinant human nicotinic acid receptor (NAR) (Homo sapiens, UniProt Q8TDS4)
Assay: inhibition of forskolin-stimulated cAMP accumulation in CHO cells (MesoScale Discovery cAMP detection kit)
Type: cell-based
Conditions: CHO cells expressing recombinant human NAR, 30 minutes at room temperature
Method: The nicotinic acid receptor agonist activity of compounds 1-285 was determined by following the inhibition of forskolin-stimulated cAMP accumulation in cells using the MesoScale Discovery cAMP detection kit following the manufacturer's protocol. Briefly, Chinese Hamster Ovary (CHO) cells expressing recombinant human nicotinic acid receptor (NAR) were harvested enzymatically, washed 1× in phosphate buffered saline (PBS) and resuspended in PBS containing 0.5 mM IBMX at 3×10^6 cells/mL. Ten μL of cell suspension was added to each well of a 384-well plate which contained 10 μL of test compounds. Test compounds were diluted with PBS containing 6 μM of forskolin. Plates were incubated for 30 minutes at room temperature after the addition of cells. Lysis buffer containing cAMP-Tag was added to each well (10 μL/well) as per the manufacturer's protocol. Plates were then incubated from 45 minutes to overnight. Prior to reading, 10 μL of read buffer was added to each well, and the plate was read in a Sector 6000 plate imager. The signal was converted to cAMP concentration using a standard curve run on each plate. Compound EC50 values were determined from concentration gradients of test compounds.

UniProt Q8TDS4, sequence (Q8TDS4 whole entry): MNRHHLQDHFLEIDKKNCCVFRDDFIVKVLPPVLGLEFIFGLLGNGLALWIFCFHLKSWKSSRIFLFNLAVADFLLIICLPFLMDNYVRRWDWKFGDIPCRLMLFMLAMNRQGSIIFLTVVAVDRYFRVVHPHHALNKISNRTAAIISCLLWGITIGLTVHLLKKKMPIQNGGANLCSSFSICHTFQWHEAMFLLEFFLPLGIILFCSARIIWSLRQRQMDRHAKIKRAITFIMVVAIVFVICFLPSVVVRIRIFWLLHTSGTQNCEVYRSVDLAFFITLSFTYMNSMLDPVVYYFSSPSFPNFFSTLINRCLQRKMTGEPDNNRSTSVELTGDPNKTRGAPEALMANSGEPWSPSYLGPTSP

Structure (SMILES): CCc1cc(=O)oc2nc(O/N=C(\C)c3nccs3)[nH]c(=O)c12 [Compound 40]
- EC50: > 1 µM

Structure (SMILES): CCc1cc(=O)oc2nc(O/N=C(\C)c3cnccn3)[nH]c(=O)c12 [Compound 55]
- EC50: > 1 µM

Structure (SMILES): CCc1cc(=O)oc2nc(O/N=C3\CCCc4sccc43)[nH]c(=O)c12 [Compound 65]
- EC50: > 1 µM

Structure (SMILES): CCOC(=O)N1C2CCC1CC(=NOc1nc3oc(=O)cc(Cc4cccc5ccccc45)c3c(=O)[nH]1)C2 [Compound 129]
- EC50: > 1 µM

Structure (SMILES): O=C(OC1CCCC1)N1C2CCC1CC(=NOc1nc3oc(=O)cc(Cc4cccc5ccccc45)c3c(=O)[nH]1)C2 [Compound 130]
- EC50: > 1 µM

Structure (SMILES): O=c1cc(Cc2cccc3ccccc23)c2c(=O)[nH]c(ON=C3CCCC3)nc2o1 [Compound 131]
- EC50: > 1 µM

Structure (SMILES): CCOC(=O)NC1CCC(=NOc2nc3oc(=O)cc(CCC4CCCCC4)c3c(=O)[nH]2)CC1 (centres unmarked) [Compound 238]
- EC50: > 1 µM

Structure (SMILES): CCOC(=O)N1C2CCC1CC(=NOc1nc3oc(=O)cc(CCC4CCCCC4)c3c(=O)[nH]1)C2 [Compound 246]
- EC50: > 1 µM

Structure (SMILES): O=c1cc(CCC2CCCCC2)c2c(=O)[nH]c(ON=C3CCOCC3)nc2o1 [Compound 247]
- EC50: > 1 µM

Structure (SMILES): CC(C)(C)OC(=O)N1CCC(=NOc2nc3oc(=O)cc(CCC4CCCCC4)c3c(=O)[nH]2)CC1 [Compound 248]
- EC50: > 1 µM

Structure (SMILES): O=c1cc(CCC2CCCCC2)c2c(=O)[nH]c(ON=C3CCC(F)(F)CC3)nc2o1 [Compound 258]
- EC50: > 1 µM

Structure (SMILES): O=c1cc(CCC2CCCCC2)c2c(=O)[nH]c(ON=C3CCC(C(F)(F)F)CC3)nc2o1 (centres unmarked) [Compound 262]
- EC50: > 1 µM

Structure (SMILES): CCCc1cc(=O)oc2nc(O/N=C3\CCCc4ccccc43)[nH]c(=O)c12 [Compound 278]
- EC50: > 1 µM

Structure (SMILES): CCCc1cc(=O)oc2nc(ON=C3CCCC3)[nH]c(=O)c12 [Compound 279]
- EC50: > 1 µM

Structure (SMILES): CCCc1cc(=O)oc2nc(ON=C3CCCCC3)[nH]c(=O)c12 [Compound 280]
- EC50: > 1 µM

Structure (SMILES): CCCc1cc(=O)oc2nc(ON=C3CCOCC3)[nH]c(=O)c12 [Compound 281]
- EC50: > 1 µM

Structure (SMILES): CCCc1cc(=O)oc2nc(ON=C3CCC(F)(F)CC3)[nH]c(=O)c12 [Compound 282]
- EC50: > 1 µM
